# Test results from the supplement of paper PMC3334620.
# The full ranking holds about 33,000 sequences; the median of “E-score (-0.5 to 0.5)” is about -0.016, and the highest 2% start at about 0.32. The list shows a part of the results.
# Target: T1, Stp1 (UniProt B3LFK1)
# T1 sequence: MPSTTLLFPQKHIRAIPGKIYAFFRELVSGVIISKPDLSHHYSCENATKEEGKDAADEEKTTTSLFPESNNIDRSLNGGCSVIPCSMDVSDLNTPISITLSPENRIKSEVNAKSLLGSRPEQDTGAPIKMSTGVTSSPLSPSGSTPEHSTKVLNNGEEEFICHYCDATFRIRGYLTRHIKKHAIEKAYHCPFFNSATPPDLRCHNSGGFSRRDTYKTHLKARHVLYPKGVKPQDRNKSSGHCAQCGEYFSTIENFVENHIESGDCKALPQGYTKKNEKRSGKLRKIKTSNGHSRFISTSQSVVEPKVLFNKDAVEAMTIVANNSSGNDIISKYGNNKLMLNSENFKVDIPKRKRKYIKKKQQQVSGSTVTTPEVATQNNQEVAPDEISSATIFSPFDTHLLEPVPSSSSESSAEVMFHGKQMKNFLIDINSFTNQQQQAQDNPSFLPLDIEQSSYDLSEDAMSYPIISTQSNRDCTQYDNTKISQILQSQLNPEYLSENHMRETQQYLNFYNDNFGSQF
# Test: PBM E-score (8-mer binding enrichment) (E-score (-0.5 to 0.5)); higher = stronger / more preferred TF binding; most listed sequences are background and not binding sites
# Details: protein concentration: 200 nM; construct: GST-full length
# Outline: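 Masliner-normalised scans of fluorescent anti-GST signal were the basis for scoring. That signal came from GST-tagged yeast transcription factors applied at about 100-200 nM to double-stranded universal all-10-mer Agilent arrays on fresh or once-stripped slides. Each ungapped eight-base word, pooled with its reverse complement, received an E-score from the Universal PBM Analysis Suite.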
row,Sequence,PBM E-score
1,AGCTACCT,-0.211
2,TCTGGGAA,0.0506
3,AATTACGA,0.119
4,CCTTGACG,-0.2
5,GGTCTCCA,-0.135
6,GAGTCTTA,-0.174
7,AGATGCCA,0.0879
8,CCTTCCAG,-0.129
9,GGCCCGCA,-0.118
10,AATGAAGA,0.207
11,CACAAGGG,-0.132
12,AGGTGGCC,-0.294
13,ATAAGTAG,-0.0454
14,AGTGGGAC,-0.267
15,ACACAGGT,-0.268
16,CTTATCTA,0.193
17,ATGCGAAA,0.143
18,CCATGACC,-0.201
19,AGAGCGTG,0.0393
20,AGCCGCGC,0.424
21,TGCTTAAA,0.0459
22,GCCCTTCA,0.153

row,Sequence,PBM E-score
1,CATGTATC,-0.031
2,AGGTCGGA,-0.181
3,GACGTCCC,-0.341
4,AGAACATG,0.0109
5,CGGTATCA,0.0203
6,CCAACGGG,0.0431
7,ACGGGCCG,0.084
8,AGGATGTG,-0.136
9,TCCAGTCA,-0.14
10,GATTTAGC,-0.0872
11,CGGCTGCC,0.241
12,AGCGTAAT,-0.0167
13,ATTTACTC,0.161
14,TAAACCAA,0.0677
15,AACCAAAT,0.135
16,CTGCGTTA,-0.102
17,GATTGCCA,0.00762
18,GGAGACCC,-0.345
19,GCATGACA,0.0909
20,ATAGACAT,-0.172
21,CTTCGGCC,-0.145
22,ATTAGACG,0.158

row,Sequence,PBM E-score
1,ATTGAATA,0.242
2,CGAACGGC,0.467
3,GGCTGTGA,0.0981
4,GAGCAACC,-0.0821
5,AGTCTTCA,-0.113
6,AGTAGGGG,-0.197
7,AACGAGGC,0.3
8,AAAGTTGT,0.162
9,ATTATGAG,0.0796
10,ATCCACAG,-0.00511
11,CAAAAGAG,-0.0462
12,AATCGGCA,0.268
13,AAAAGTTA,0.0307
14,GCGTACGC,-0.0472
15,ACTTTCGA,-0.0877
16,GGCAGTGA,0.0454
17,CACCGGCC,-0.121
18,GGGCAGAC,-0.08
19,CTCACTGA,-0.0281
20,ATATTTGG,-0.0297
21,CTCCGGAA,-0.228
22,ACTATCCG,0.115

row,Sequence,PBM E-score
1,GACTACGC,-0.174
2,AATTCAAC,0.164
3,CGATGGAC,-0.178
4,ATAACAAG,0.16
5,AAAGGTAA,-0.0968
6,CCAGCCCG,-0.321
7,TCTTTCCA,-0.122
8,CCTACAGG,-0.264
9,CCCTTAGC,-0.176
10,CGTTAAAC,0.187
11,CACTAAAA,0.123
12,ATGGAACA,-0.144
13,AGGGAAAC,-0.162
14,TATGATCA,0.0853
15,GATCCGAA,-0.0145
16,AGAGGTAA,-0.0671
17,GATGTAAA,0.0807
18,TCGTAACA,0.0553
19,AATCCCGT,0.181
20,GGCCGCAC,0.289
21,ATTACGGA,0.0935
22,GGAAAAGA,0.124

row,Sequence,PBM E-score
1,AGGATCTA,-0.119
2,GCGGTAAC,0.245
3,AAGATCGG,-0.09
4,AAAACGTG,0.00312
5,ACTCAGGA,-0.0219
6,GCCGCGCA,0.476
7,AGAATGGG,-0.147
8,CCTATGGC,0.0235
9,AAACGGTC,0.0651
10,AACGAAGA,0.0103
11,GGCCGAAA,0.0894
12,CTCCTTGC,-0.251
13,AAAACTGC,0.0654
14,CTACAGCC,-0.0221
15,CTAGGAAC,-0.0557
16,ACAGGGCC,0.0285
17,CGTGGACA,0.0565
18,AACCGTTG,-0.0846
19,CGCATGCG,0.104
20,ACGGTCGA,-0.0498
21,ATCTTTTA,0.132
22,GCACGGGC,0.19
